# Assay results as given in the supplement of paper PMC8728848.
# The other results are listed elsewhere or left out.
# Tests used:
# Assay in all cases: glycan array binding signal (z-score within array); higher = stronger binding
# Settings in all cases: glycan notation: IUPAC condensed, linker removed
# [1] = target: Fuc(a1-2)Gal
# Method in brief: (§1)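 Negative Z-scores can be read as non-binding. The Z-score is calculated within each array and then averaged across arrays of one protein sequence at different concentrations or buffers and across linkers. Arrays, 3228 in all, were curated from the Consortium for Functional Glycomics database and kept only where the protein sequence was available.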
# [2] = target: Fuc(a1-2)Gal(b1-3)GalNAc
# Method in brief: as §1
# [3] = target: Fuc(a1-2)Gal(b1-3)GalNAc(a1-3)[Fuc(a1-2)]Gal(b1-4)Glc
# Method in brief: as §1
# [4] = target: Fuc(a1-2)Gal(b1-3)GalNAc(a1-3)[Fuc(a1-2)]Gal(b1-4)GlcNAc
# Method in brief: as §1
# [5] = target: Fuc(a1-2)Gal(b1-3)GalNAc(b1-3)Gal
# Method in brief: as §1
# [6] = target: Fuc(a1-2)Gal(b1-3)GalNAc(b1-3)Gal(a1-4)Gal(b1-4)Glc
# Method in brief: as §1
# [7] = target: Fuc(a1-2)Gal(b1-3)GalNAc(b1-4)[Neu5Ac(a2-3)]Gal(b1-4)Glc
# Method in brief: as §1
# [8] = target: Fuc(a1-2)Gal(b1-3)GlcNAc
# Method in brief: as §1
# [9] = target: Fuc(a1-2)Gal(b1-3)GlcNAc(b1-2)Man(a1-3)[Fuc(a1-2)Gal(b1-3)GlcNAc(b1-2)Man(a1-6)]Man(b1-4)GlcNAc(b1-4)GlcNAc
# Method in brief: as §1
# [10] = target: Fuc(a1-2)Gal(b1-3)GlcNAc(b1-2)Man(a1-3)[Fuc(a1-2)Gal(b1-3)GlcNAc(b1-2)Man(a1-6)]Man(b1-4)GlcNAc(b1-4)[Fuc(a1-6)]GlcNAc
# Method in brief: as §1
# [11] = target: Fuc(a1-2)Gal(b1-3)GlcNAc(b1-3)Gal(b1-4)Glc
# Method in brief: as §1
# [12] = target: Fuc(a1-2)Gal(b1-3)GlcNAc(b1-3)GalNAc
# Method in brief: as §1
# [13] = target: Fuc(a1-2)Gal(b1-3)GlcNAc(b1-3)[Fuc(a1-2)Gal(b1-3)GlcNAc(b1-6)]GalNAc
# Method in brief: as §1
# [14] = target: Fuc(a1-2)Gal(b1-3)GlcNAc(b1-3)[Gal(b1-4)GlcNAc(b1-6)]Gal(b1-4)Glc
# Method in brief: as §1
# [15] = target: Fuc(a1-2)Gal(b1-3)GlcNAc(b1-3)[Neu5Ac(a2-6)Gal(b1-4)GlcNAc(b1-6)]Gal(b1-4)Glc
# Method in brief: as §1
# [16] = target: Fuc(a1-2)Gal(b1-3)GlcNAc6S
# Method in brief: as §1
# [17] = target: Fuc(a1-2)Gal(b1-3)[Fuc(a1-4)]GlcNAc
# Method in brief: as §1
# [18] = target: Fuc(a1-2)Gal(b1-3)[Fuc(a1-4)]GlcNAc(b1-2)Man(a1-3)[Fuc(a1-2)Gal(b1-3)[Fuc(a1-4)]GlcNAc(b1-2)Man(a1-3)]Man(b1-4)GlcNAc(b1-4)GlcNAc
# Method in brief: as §1
# [19] = target: Fuc(a1-2)Gal(b1-3)[Fuc(a1-4)]GlcNAc(b1-2)Man(a1-3)[Fuc(a1-2)Gal(b1-3)[Fuc(a1-4)]GlcNAc(b1-2)Man(a1-6)]Man(b1-4)GlcNAc(b1-4)[Fuc(a1-6)]GlcNAc(b1-4)[Fuc(a1-6)]GlcNAc
# Method in brief: as §1
# [20] = target: Fuc(a1-2)Gal(b1-3)[Fuc(a1-4)]GlcNAc(b1-3)[Fuc(a1-3)[Gal(b1-4)]GlcNAc(b1-6)]Gal(b1-4)Glc
# Method in brief: as §1
# [21] = target: Fuc(a1-2)Gal(b1-3)[Fuc(a1-4)]GlcNAc(b1-3)[Gal(b1-4)GlcNAc(b1-6)]Gal(b1-4)Glc
# Method in brief: as §1
# [22] = target: Fuc(a1-2)Gal(b1-4)Fuc(a1-3)]GlcNAc(b1-2)Man(a1-3)[Fuc(a1-2)Gal(b1-4)[Fuc(a1-3)]GlcNAc(b1-2)Man(a1-6)]Man(b1-4)GlcNAc(b1-4)GlcNAc
# Method in brief: as §1
# [23] = target: Fuc(a1-2)Gal(b1-4)Glc
# Method in brief: as §1
# [24] = target: Fuc(a1-2)Gal(b1-4)Glc6S
# Method in brief: as §1
# [25] = target: Fuc(a1-2)Gal(b1-4)GlcNAc
# Method in brief: as §1
# [26] = target: Fuc(a1-2)Gal(b1-4)GlcNAc(b1-2)Man
# Method in brief: as §1
# [27] = target: Fuc(a1-2)Gal(b1-4)GlcNAc(b1-2)Man(a1-3)[Fuc(a1-2)Gal(b1-4)GlcNAc(b1-2)Man(a1-6)]Man(b1-4)GlcNAc(b1-4)GlcNAc
# Method in brief: as §1
# [28] = target: Fuc(a1-2)Gal(b1-4)GlcNAc(b1-2)Man(a1-3)[Fuc(a1-2)Gal(b1-4)GlcNAc(b1-2)Man(a1-6)]Man(b1-4)GlcNAc(b1-4)[Fuc(a1-6)]GlcNAc
# Method in brief: as §1
# [29] = target: Fuc(a1-2)Gal(b1-4)GlcNAc(b1-2)[Fuc(a1-2)Gal(b1-4)GlcNAc(b1-4)]Man(a1-3)[Fuc(a1-2)Gal(b1-4)GlcNAc(b1-2)Man(a1-6)]Man(b1-4)GlcNAc(b1-4)GlcNAc
# Method in brief: as §1
# [30] = target: Fuc(a1-2)Gal(b1-4)GlcNAc(b1-3)Gal(b1-4)GlcNAc
# Method in brief: as §1
binder,measurement,setting,value
rMpL (Macrolepiota procera) (protein) MSTQVSSGRTYKITNVIAGTVIDLSGEDNKSIIGYPYHSGKNQQWTFNWTGKAWTLRSASSGSYLGIEGTPAGGTRLVAVNDPFEWHIWRDEANENAFRIFVPFTNYNLDLSGYGDTTPGTPVQLWWTWEGLHQTWTIDRP,glycan array binding signal (z-score),[1],-0.334
same,glycan array binding signal (z-score),[2],-0.342
same,glycan array binding signal (z-score),[3],-0.218
same,glycan array binding signal (z-score),[4],-0.34
same,glycan array binding signal (z-score),[5],-0.272
same,glycan array binding signal (z-score),[6],-0.32
same,glycan array binding signal (z-score),[7],-0.322
same,glycan array binding signal (z-score),[8],-0.346
same,glycan array binding signal (z-score),[9],-0.176
same,glycan array binding signal (z-score),[10],0.011
same,glycan array binding signal (z-score),[11],-0.275
same,glycan array binding signal (z-score),[12],-0.299
same,glycan array binding signal (z-score),[13],-0.078
same,glycan array binding signal (z-score),[14],0.062
same,glycan array binding signal (z-score),[15],-0.219
same,glycan array binding signal (z-score),[16],-0.26
same,glycan array binding signal (z-score),[17],-0.346
same,glycan array binding signal (z-score),[18],0.35
same,glycan array binding signal (z-score),[19],-0.251
same,glycan array binding signal (z-score),[20],0.051
same,glycan array binding signal (z-score),[21],0.034
same,glycan array binding signal (z-score),[22],-0.148
same,glycan array binding signal (z-score),[23],-0.325
same,glycan array binding signal (z-score),[24],-0.287
same,glycan array binding signal (z-score),[25],-0.313
same,glycan array binding signal (z-score),[26],-0.272
same,glycan array binding signal (z-score),[27],-0.164
same,glycan array binding signal (z-score),[28],-0.049
same,glycan array binding signal (z-score),[29],-0.037
same,glycan array binding signal (z-score),[30],-0.356
